Experimental data: PMC7819943, “Rice protein-binding microarrays: a tool to detect cis-acting elements near promoter regions in rice”
The other results are listed elsewhere or left out.

What follows are sequences tested against T1, OsWOX13 (Oryza sativa, UniProt Q5QMM3 1-267) (assay: protein-binding microarray (RPBM); PBS, 2% BSA, 51.3 ng/ul salmon testes DNA, 50 uM zinc acetate, 200 nM TF, 25 C, 1 h; high values mean tight binding). Details: protein: recombinant; tags: N-terminal polyhistidine and DsRed monomer fusion (pET32a); label: CyDye5-dUTP incorporated in the synthesized complementary strand; 3' TTTTT single-stranded linker to array surface; dsDNA, one strand shown.
T1 sequence: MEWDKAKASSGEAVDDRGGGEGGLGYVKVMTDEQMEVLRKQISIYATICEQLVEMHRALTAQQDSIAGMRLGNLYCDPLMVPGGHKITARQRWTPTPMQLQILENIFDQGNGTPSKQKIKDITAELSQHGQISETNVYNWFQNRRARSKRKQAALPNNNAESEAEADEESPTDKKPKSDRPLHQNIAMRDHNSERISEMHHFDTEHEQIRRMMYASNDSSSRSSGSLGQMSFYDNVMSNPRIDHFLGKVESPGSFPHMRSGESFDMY
Method in brief: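 The binding signal is fluorescence intensity per feature, in arbitrary units, read on an Axon 4000B scanner. Polyhistidine- and DsRed-tagged transcription factors (N-terminal fusions) from E. coli BL21-CodonPlus were purified on Ni–NTA and applied at 200 nM for 1 h at 25 °C to a double-stranded, BSA-blocked custom Agilent array in buffer with 50 µM zinc acetate.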

Sequence | binding signal
CATATAAATTGAATTAGAGCTATTACCTCATGAGGGGCTTCGGAGTCACCTAGTGCAG | 39100 fluorescence intensity (a.u.)
CTTAAATTAAGGTACGTTAGGTGAAGATAGTTGACGGTTACGGAGTCACCTAGTGCAG | 9870 fluorescence intensity (a.u.)
CTCTTAAATTAAATTTGAGAATAAACTTTTGGATTAAAATCGGAGTCACCTAGTGCAG | 5180 fluorescence intensity (a.u.)
AAGAATAGTTAATTTCCATCTCGGTATCCTTTAACAATTGCGGAGTCACCTAGTGCAG | 5890 fluorescence intensity (a.u.)
CGAATAAACAAATTATAATGATATTTATCTGAAATAACATCGGAGTCACCTAGTGCAG | 3870 fluorescence intensity (a.u.)
TTAATTAATAATATGTTAATGATTTTCTCATCTTACCTTACGGAGTCACCTAGTGCAG | 13400 fluorescence intensity (a.u.)
TATATGTATAAATTTATTGTAACATTCTAATACGAGGTTGCGGAGTCACCTAGTGCAG | 3690 fluorescence intensity (a.u.)
TGAATTTATCCTAAATTAGGGTACTGCAAATTAAAGTTGGCGGAGTCACCTAGTGCAG | 6100 fluorescence intensity (a.u.)
AAGGTGACGTCAATTTTAACATGAATATGACGTCATTACTCGGAGTCACCTAGTGCAG | 5610 fluorescence intensity (a.u.)
TTAATTAATCATGTGCTAATCCTCGCTCCATTTTACGTGTCGGAGTCACCTAGTGCAG | 30300 fluorescence intensity (a.u.)
GCTAATTGCAATTTTGGCCGTCCATAAAGAGCTTGCGGCCCGGAGTCACCTAGTGCAG | 52900 fluorescence intensity (a.u.)
AAAATAAATCTAGATTTTCTTTTATCTAAACTTCCAGCTACGGAGTCACCTAGTGCAG | 3230 fluorescence intensity (a.u.)
CAGACCAAGAAATAATTATTATCATCTTATAGGTGGATCACGGAGTCACCTAGTGCAG | 3990 fluorescence intensity (a.u.)
ACCTCCACTACTTATCCAATCACAATCTTTCACCACTCACCGGAGTCACCTAGTGCAG | 4890 fluorescence intensity (a.u.)
TTGATTTGGAACGTGGATTTTCCTCCCCAAATAAACATTGCGGAGTCACCTAGTGCAG | 8450 fluorescence intensity (a.u.)
ATTGAAGAAGTTGATTGGGGACCAAACCAAGACCTTCTCCCGGAGTCACCTAGTGCAG | 26600 fluorescence intensity (a.u.)
AATATCCTATTAATTGAGCCCTACTCGAGCGCTAGGCTTACGGAGTCACCTAGTGCAG | 5050 fluorescence intensity (a.u.)
AGAGAAATTAATCAAGTCAGAACCACCAGTGATTCACCCCCGGAGTCACCTAGTGCAG | 5660 fluorescence intensity (a.u.)
GGGCCCAGGAATAGATTGGTGTCCGGCTGTCCGCGCCGCACGGAGTCACCTAGTGCAG | 3390 fluorescence intensity (a.u.)
GGGATTAGGGATTGTTTGTTACTTTGTACGTCTCCTAATACGGAGTCACCTAGTGCAG | 3840 fluorescence intensity (a.u.)
GTGTTGAATGCACTGATTTGTTCAGTGTCTGAGATTGATGCGGAGTCACCTAGTGCAG | 13100 fluorescence intensity (a.u.)

Sequence | binding signal
GAGTAGCTAATTAACTAGAGTTATTCTTCTACCTAACCAGCGGAGTCACCTAGTGCAG | 10600 fluorescence intensity (a.u.)
ATGATAGATTATTATAATTTATAAGTAAGATTACTATAATCGGAGTCACCTAGTGCAG | 35100 fluorescence intensity (a.u.)
CGCGTAATTTACTCACAGTCACCAGTCCGTGCCGATGCAGCGGAGTCACCTAGTGCAG | 28800 fluorescence intensity (a.u.)
TTACTATTAATTGGATTATATAGTGGTTATGGGTTTGTGTCGGAGTCACCTAGTGCAG | 34200 fluorescence intensity (a.u.)
CAGGCTGCTTAATTACATATATCTAGATATATATATTATTCGGAGTCACCTAGTGCAG | 3870 fluorescence intensity (a.u.)
TTTATCTAATCATTTTAGTTTAGACTAGTTAATGTTACCTCGGAGTCACCTAGTGCAG | 7390 fluorescence intensity (a.u.)
CACGTTGACCATAATGATTTAGTACCATATACGATAATACCGGAGTCACCTAGTGCAG | 3520 fluorescence intensity (a.u.)
CTGATTACTATAATCGTACTTACTTCCAGCGATTAGCGTCCGGAGTCACCTAGTGCAG | 24500 fluorescence intensity (a.u.)
CAATAAAACAAATTATAGATTATGCCTGTAAACGGTAAGACGGAGTCACCTAGTGCAG | 7440 fluorescence intensity (a.u.)
GGATAAATTTCAGTAGACAGCAAATGGGAACATTTTGATACGGAGTCACCTAGTGCAG | 7760 fluorescence intensity (a.u.)
GCACTTTTAGATGATCAAATCATTTTCTGGGATATAGAGACGGAGTCACCTAGTGCAG | 3190 fluorescence intensity (a.u.)
TAATATTTAATTTATTTATTTGTACTCTTAATAATTGTCACGGAGTCACCTAGTGCAG | 9150 fluorescence intensity (a.u.)
ATGGGAAGACACTTCGTAATTAGCACACTTAAATTTCGAACGGAGTCACCTAGTGCAG | 4560 fluorescence intensity (a.u.)
AATTTTAATTGCCATGCATGGCTATGTATCTCTCAATCATCGGAGTCACCTAGTGCAG | 10300 fluorescence intensity (a.u.)
AGACACATAATTTGCATCTTGCCACACCTTCGGTACAAAACGGAGTCACCTAGTGCAG | 7200 fluorescence intensity (a.u.)
TATAATTAGAGAATGTTTACTGTAGCATCACATAGGTTAACGGAGTCACCTAGTGCAG | 14500 fluorescence intensity (a.u.)
CTTAATGAACAGTACCAATTGTACCAAAGTAATCTCGATTCGGAGTCACCTAGTGCAG | 5270 fluorescence intensity (a.u.)
CCAAAATTTAATTCTAATTAGAAACCATTAAGTGTGGCGGCGGAGTCACCTAGTGCAG | 47000 fluorescence intensity (a.u.)
TTTGACAACTAACTAACTAACCATCTCTTCTGTTTTCTCACGGAGTCACCTAGTGCAG | 5880 fluorescence intensity (a.u.)
CAAAATTAGAAGTTTGACTAAAATTAGAATTTCAGAGAAACGGAGTCACCTAGTGCAG | 7620 fluorescence intensity (a.u.)
CGTAGCGGTCCTCGAATCAATCAATTTCCTCCCACGGGAACGGAGTCACCTAGTGCAG | 10000 fluorescence intensity (a.u.)
